Source: patent US20230009608A1, “GRK2 INHIBITORS AND USES THEREOF” (Cygnal Therapeutics, Inc., priority 2020, published 2023)
At least one read-out could not be matched to a standard name with certainty.

System: PAXF1657 control empty vector cell line
Assay: 7-day proliferation assay, PAXF1657 control empty vector cell line (Example 9)
Assay type: cell-based
Details: Cell Line: PAXF1657 empty vector (EV) cell line
Summary of the method: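 PAXF1657 isogenic lines (GRK2-overexpressing vs empty vector; CRISPR GRK2 knockout vs non-targeting control clones) seeded 500 cells/well in RPMI1640/10% FBS and treated next day with 10-point dilutions, 30 μM-0.0002 μM final, 0.3% DMSO. Media with compound refreshed after 3 days; viability read by CellTiter-Glo luminescence at day 7.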

In order of rising “D: 7-day proliferation assay: % Minimum GeoMean (%)” value:
1. Cc1cccnc1CNC(=O)c1cccc(NCc2nnc(-c3ccncc3)[nH]2)c1  1.37%
2. Cn1c(CNc2cccc(C(=O)NCc3ccccc3C(F)(F)F)c2)nnc1-c1ccncn1  13.1%
3. Cn1c(CNc2cccc(C(=O)N[C@H](CCO)c3ccccc3)c2)nnc1-c1ccncc1F  14.3%
4. Cn1c(CNc2cccc(C(=O)NCc3ccccc3C(F)(F)F)c2)nnc1-c1ccncc1F  20.7%
5. Cn1c(CNc2cccc(C(=O)N[C@@H](CCO)c3ccccc3)c2)nnc1-c1ccncc1F  25.3%
6. Cc1cccc2ncc(CNC(=O)c3cccc(NCc4nnc(-c5ccncc5)[nH]4)c3)n12  25.6%
7. Cn1c(CNc2cccc(C(=O)NCc3nc(C4CC4)cs3)c2)nnc1-c1ccncn1  27.6%
8. C[C@H](NC(=O)c1cccc(NCc2nnc(-c3ccncc3F)n2C)c1)c1ncccc1Cl  27.6%
9. Cc1cccc2ncc(CNC(=O)c3cccc(NCc4nnc(-c5ccncc5F)n4C)c3)n12  27.7%
10. COc1cccc([C@@H](C)NC(=O)c2cccc(NCc3nnc(-c4ccncc4F)n3C)c2)c1  28.8%
11. COc1c(C)cccc1CNC(=O)c1cccc(NCc2nnc(-c3ccncn3)n2C)c1  30.4%
12. Cc1cc2c(cc1CNC(=O)c1cccc(NCc3nnc(-c4ccncc4F)n3C)c1)OCCO2  30.8%
13. Cn1c(CNc2cccc(C(=O)NCc3cnc4ccccn34)c2)nnc1-c1ccncc1F  34.5%
14. [2H]C([2H])(Nc1cccc(C(=O)N[C@H]2CCOc3ccccc32)c1)c1nnc(-c2ccncn2)n1CCO  35.3%
15. [2H]C([2H])(Nc1cccc(C(=O)N[C@@H]2COc3ccccc32)c1)c1nnc(-c2ccncn2)n1CCO  35.4%
16. Cn1c(CNc2cccc(C(=O)NCc3cccc(C#N)c3F)c2)nnc1-c1ccncn1  36.6%
17. Cc1ccc(C#N)cc1CNC(=O)c1ccnc(NCc2nnc(-c3ccncn3)n2C)c1  37.1%
18. CC(NC(=O)c1cccc(NCc2nnc(-c3ccncn3)n2C)c1)c1ccon1 (stereo not drawn)  37.8%
19. Cn1c(CNc2cccc(C(=O)NCc3cccc(C(F)F)c3)c2)nnc1-c1ccncn1  38.3%
20. Cn1c(CNc2cccc(C(=O)N[C@H]3CCOc4c(F)cccc43)c2)nnc1-c1ccncn1  39.4%
21. [2H]C([2H])(Nc1cccc(C(=O)N[C@@H]2CCOc3cccnc32)c1)c1nnc(-c2ccncn2)n1C  39.4%
22. CCc1cnccc1CNC(=O)c1cccc(NCc2nnc(-c3ccncc3)n2CCO)c1  41%
23. Cc1cccc2ncc(CNC(=O)c3cccc(NCc4nnc(-c5ccncc5)n4CCO)c3)n12  42%
24. Cc1ccncc1CNC(=O)c1cccc(NCc2nnc(-c3ccncn3)n2C)c1  44.4%
25. C[C@H](NC(=O)c1cccc(NCc2nnc(-c3ccncn3)n2C)c1)c1cncs1  47.6%
26. C[C@@H](NC(=O)c1cccc(NCc2nnc(-c3ccncc3F)n2C)c1)c1ncccc1Cl  48.3%
27. [2H]C([2H])(Nc1cccc(C(=O)N[C@@H]2COCc3ccccc32)c1)c1nnc(-c2ccncn2)n1C  48.5%
28. CC(C)Oc1ncccc1CNC(=O)c1cccc(NCc2nnc(-c3ccncn3)n2C)c1  48.9%
29. Cn1c(CNc2cccc(C(=O)NCc3cc(C(C)(C)C)ccn3)c2)nnc1-c1ccncn1  49%
30. CC(NC(=O)c1cccc(NCc2nnc(-c3ccncn3)n2C)c1)c1ccncc1F (stereo not drawn)  49%
31. COc1ncc(Br)cc1CNC(=O)c1ccnc(NCc2nnc(-c3ccncn3)n2C)c1  49.7%
32. [2H]C([2H])(Nc1cccc(C(=O)N[C@H]2CCOc3ccccc32)c1)c1nnc(-c2ccccn2)n1C  50.6%
33. O=C(NCc1cnc2ccccn12)c1cccc(NCc2nnc(-c3ccncc3)n2CCO)c1  51.6%
34. Cn1c(CNc2cccc(C(=O)NCc3cncc(F)c3)c2)nnc1-c1ccncn1  52.4%
35. COc1cccc([C@H](C)NC(=O)c2ccnc(NCc3nnc(-c4ccncn4)n3C)c2)c1  52.7%
36. Cn1c(CNc2cccc(C(=O)NCc3ccn(C4CCCC4)n3)c2)nnc1-c1ccncn1  54.2%
37. Cn1c(CNc2cc(C(=O)N[C@H]3COCc4ccccc43)ccn2)nnc1-c1ccncn1  54.4%
38. COc1cccc([C@@H](C)NC(=O)c2ccnc(NCc3nnc(-c4ccncn4)n3C)c2)c1  58.6%
39. CCc1cnccc1CNC(=O)c1cccc(NCc2nnc(-c3ccncn3)n2[C@@H]2CCC[C@H](NC)C2)c1  58.8%
40. Cc1cccnc1C(C)(C)NC(=O)c1cccc(NCc2nnc(-c3ccncn3)n2C)c1  62.4%
41. CC(C)Cn1nccc1CNC(=O)c1cccc(NCc2nnc(-c3ccncn3)n2C)c1  63.4%
42. CCN(CC)Cc1ccccc1CNC(=O)c1cccc(NCc2nnc(-c3ccncn3)n2C)c1  64.4%
43. Cn1c(CNc2cccc(C(=O)NC3CCCOc4ccccc43)c2)nnc1-c1ccncn1 (stereo not drawn)  64.4%
44. Cn1c(CNc2cc(C(=O)N[C@H]3COc4cc(F)ccc43)ccn2)nnc1-c1ccncn1  65%
45. Cn1c(CNc2cccc(C(=O)NCc3cccc(OCCCCCCOCCOCCOCCCN)c3)c2)nnc1-c1ccncn1  67.5%
46. Cc1cc(CNC(=O)c2cccc(NCc3nnc(-c4ccncn4)n3C)c2)ccn1  68.7%
47. COc1ccc(CNC(=O)c2cccc(NCc3nnc(-c4ccncn4)n3C)c2)nc1  69.7%
48. COc1ccnc(CNC(=O)c2cccc(NCc3nnc(-c4ccncn4)n3C)c2)c1F  70.5%
49. CCN(CC)C(=O)C(NC(=O)c1cccc(NCc2nnc(-c3ccncn3)n2C)c1)c1ccccc1 (stereo not drawn)  70.9%
50. COc1cccnc1CNC(=O)c1cccc(NCc2nnc(-c3ccncn3)n2C)c1  71.2%
51. Cn1c(CNc2cccc(C(=O)NCc3ccc(F)cc3)c2)nnc1-c1ccncn1  72.2%
52. CC(NC(=O)c1cccc(NCc2nnc(-c3ccncn3)n2C)c1)c1ncnn1C (stereo not drawn)  75.7%
53. COc1ccccc1C1(NC(=O)c2cccc(NCc3nnc(-c4ccncn4)n3C)c2)CC1  76.2%
54. CC(C)n1nccc1CNC(=O)c1cccc(NCc2nnc(-c3ccncn3)n2C)c1  77.2%
55. Cn1c(CNc2cccc(C(=O)NCc3ccccn3)c2)nnc1-c1ccncn1  84.3%
56. Cn1c(CNc2cccc(C(=O)NCc3ccccc3)c2)nnc1-c1ccncn1  87.7%
57. CC(C)C(NC(=O)c1cccc(NCc2nnc(-c3ccncn3)n2C)c1)c1nncn1C (stereo not drawn)  101%
